Experimental data published in the supplement of paper PMC8728848.
This is one part of the list.

Key:
Experiment in all cases: glycan array binding signal (z-score within array); higher = stronger binding
Details in all cases: glycan notation: IUPAC condensed, linker removed
[1] = molecular target: Gal(b1-3)GlcNAc(b1-2)Man(a1-3)[Gal(b1-3)GlcNAc(b1-2)Man(a1-6)]Man(b1-4)GlcNAc(b1-4)GlcNAc
Summary of the method: (§1)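 Glycan array data came from 3228 arrays in the Consortium for Functional Glycomics database, and only arrays with an available protein sequence were kept. Glycan names were put into IUPAC-condensed notation, and columns mapping to the same glycan were averaged. The binding signal is a within-array Z-score, averaged across arrays of one protein sequence run at different concentrations or buffers and across linkers. A negative Z-score can be read as non-binding.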

[2] = molecular target: Gal(b1-3)GlcNAc(b1-2)Man(a1-3)[Gal(b1-3)GlcNAc(b1-2)Man(a1-6)]Man(b1-4)GlcNAc(b1-4)[Fuc(a1-6)]GlcNAc
Summary of the method: as §1

[3] = molecular target: Gal(b1-3)GlcNAc(b1-2)Man(a1-3)[GlcNAc(b1-4)][Gal(b1-3)GlcNAc(b1-2)Man(a1-6)]Man(b1-4)GlcNAc(b1-4)GlcNAc
Summary of the method: as §1

[4] = molecular target: Gal(b1-3)GlcNAc(b1-2)[Gal(b1-3)GlcNAc(b1-6)]Man(a1-6)[Gal(b1-3)GlcNAc(b1-2)Man(a1-3)]Man(b1-4)GlcNAc(b1-4)GlcNAc
Summary of the method: as §1

[5] = molecular target: Gal(b1-3)GlcNAc(b1-3)Gal(b1-3)GlcNAc
Summary of the method: as §1

[6] = molecular target: Gal(b1-3)GlcNAc(b1-3)Gal(b1-4)Glc
Summary of the method: as §1

[7] = molecular target: Gal(b1-3)GlcNAc(b1-3)Gal(b1-4)GlcNAc
Summary of the method: as §1

[8] = molecular target: Gal(b1-3)GlcNAc(b1-3)Gal(b1-4)GlcNAc(b1-2)Man(a1-3)[Gal(b1-3)GlcNAc(b1-3)Gal(b1-4)GlcNAc(b1-2)Man(a1-6)]Man(b1-4)GlcNAc(b1-4)GlcNAc
Summary of the method: as §1

[9] = molecular target: Gal(b1-3)GlcNAc(b1-3)Gal(b1-4)GlcNAc(b1-2)[Gal(b1-3)GlcNAc(b1-3)Gal(b1-4)GlcNAc(b1-6)]Man(a1-6)[Gal(b1-3)GlcNAc(b1-3)Gal(b1-4)GlcNAc(b1-2)Man(a1-3)]Man(b1-4)GlcNAc(b1-4)[Fuc(a1-6)]GlcNAc
Summary of the method: as §1

[10] = molecular target: Gal(b1-3)GlcNAc(b1-3)Gal(b1-4)GlcNAc(b1-3)Gal(b1-4)GlcNAc(b1-2)[Gal(b1-3)GlcNAc(b1-3)Gal(b1-4)GlcNAc(b1-3)Gal(b1-4)GlcNAc(b1-6)]Man(a1-6)[Gal(b1-3)GlcNAc(b1-3)Gal(b1-4)GlcNAc(b1-3)Gal(b1-4)GlcNAc(b1-2)Man(a1-3)]Man(b1-4)GlcNAc(b1-4)[Fuc(a1-6)]GlcNAc
Summary of the method: as §1

[11] = molecular target: Gal(b1-3)GlcNAc(b1-3)Gal(b1-4)GlcNAc(b1-6)[Gal(b1-3)GlcNAc(b1-3)]Gal(b1-4)Glc
Summary of the method: as §1

[12] = molecular target: Gal(b1-3)GlcNAc(b1-3)Gal(b1-4)[Fuc(a1-3)]GlcNAc
Summary of the method: as §1

[13] = molecular target: Gal(b1-3)GlcNAc(b1-3)Gal(b1-4)[Fuc(a1-3)]GlcNAc(b1-6)[Gal(b1-3)GlcNAc(b1-3)]Gal(b1-4)Glc
Summary of the method: as §1

[14] = molecular target: Gal(b1-3)GlcNAc(b1-3)GalNAc
Summary of the method: as §1

[15] = molecular target: Gal(b1-3)GlcNAc(b1-6)Gal(b1-4)GlcNAc
Summary of the method: as §1

[16] = molecular target: Gal(b1-3)GlcNAc(b1-6)GalNAc
Summary of the method: as §1

[17] = molecular target: Gal(b1-3)GlcNAc(b1-6)[Gal(b1-3)]GalNAc
Summary of the method: as §1

Gal(b1-3)GlcNAc6S = molecular target: Gal(b1-3)GlcNAc6S
Summary of the method: as §1

[18] = molecular target: Gal(b1-3)[Fuc(a1-4)]GlcNAc
Summary of the method: as §1

[19] = molecular target: Gal(b1-3)[Fuc(a1-4)]GlcNAc(b1-2)Man
Summary of the method: as §1

[20] = molecular target: Gal(b1-3)[Fuc(a1-4)]GlcNAc(b1-2)Man(a1-3)[Gal(b1-3)[Fuc(a1-4)]GlcNAc(b1-2)Man(a1-6)]Man(b1-4)GlcNAc(b1-4)[Fuc(a1-6)]GlcNAc
Summary of the method: as §1

[21] = molecular target: Gal(b1-3)[Fuc(a1-4)]GlcNAc(b1-3)Gal(b1-3)[Fuc(a1-4)]GlcNAc
Summary of the method: as §1

[22] = molecular target: Gal(b1-3)[Fuc(a1-4)]GlcNAc(b1-3)Gal(b1-4)[Fuc(a1-3)]GlcNAc
Summary of the method: as §1

[23] = molecular target: Gal(b1-3)[Fuc(a1-4)]GlcNAc(b1-6)GalNAc
Summary of the method: as §1

[24] = molecular target: Gal(b1-3)[GlcNAc(b1-6)]GalNAc
Summary of the method: as §1

[25] = molecular target: Gal(b1-3)[Neu5Ac(a2-6)]GalNAc
Summary of the method: as §1

[26] = molecular target: Gal(b1-3)[Neu5Ac(a2-6)]GlcNAc(b1-4)Gal(b1-4)Glc
Summary of the method: as §1

[27] = molecular target: Gal(b1-3)[Neu5Ac(b2-6)]GalNAc
Summary of the method: as §1

Gal(b1-4)Gal = molecular target: Gal(b1-4)Gal
Summary of the method: as §1

[28] = molecular target: Gal(b1-4)GalNAc(a1-3)[Fuc(a1-2)]Gal(b1-4)GlcNAc
Summary of the method: as §1

[29] = molecular target: Gal(b1-4)GalNAc(b1-3)[Fuc(a1-2)]Gal(b1-4)GlcNAc
Summary of the method: as §1

Gal(b1-4)Glc = molecular target: Gal(b1-4)Glc
Summary of the method: as §1

Gal(b1-4)Glc6S = molecular target: Gal(b1-4)Glc6S
Summary of the method: as §1

Gal(b1-4)GlcNAc = molecular target: Gal(b1-4)GlcNAc
Summary of the method: as §1

[30] = molecular target: Gal(b1-4)GlcNAc(a1-6)Gal(b1-4)GlcNAc
Summary of the method: as §1

Gal(b1-4)GlcNAc(b1-2)Man = molecular target: Gal(b1-4)GlcNAc(b1-2)Man
Summary of the method: as §1

[31] = molecular target: Gal(b1-4)GlcNAc(b1-2)Man(a1-3)Man(b1-4)GlcNAc(b1-4)GlcNAc
Summary of the method: as §1

B1: Siglec-9 (Homo sapiens), Q9Y336 (protein)
chain: MLLLLLPLLWGRERAEGQTSKLLTMQSSVTVQEGLCVHVPCSFSYPSHGWIYPGPVVHGYWFREGANTDQDAPVATNNPARAVWEETRDRFHLLGDPHTKNCTLSIRDARRSDAGRYFFRMEKGSIKWNYKHHRLSVNVTALTHRPNILIPGTLESGCPQNLTCSVPWACEQGTPPMISWIGTSVSPLDPSTTRSSVLTLIPQPQDHGTSLTCQVTFPGASVTTNKTVHLNVSYPPQNLTMTVFQGDGTVSTVLGNGSSLSLPEGQSLRLVCAVDAVDSNPPARLSLSWRGLTLCPSQPSNPGVLELPWVHLRDAAEFTCRAQNPLGSQQVYLNVSLQSKATSGVTQGVVGGAGATALVFLSFCVIFVVVRSCRKKSARPAAGVGDTGIEDANAVRGSASQGPLTEPWAEDSPPDQPPPASARSSVGEGELQYASLSFQMVKPWDSRGQEATDTEYSEIKIHR
glycan array binding signal (z-score) [1]: -0.172 | glycan array binding signal (z-score) [2]: 0.046 | glycan array binding signal (z-score) [3]: -0.183 | glycan array binding signal (z-score) [4]: -0.043 | glycan array binding signal (z-score) [5]: -0.277 | glycan array binding signal (z-score) [6]: -0.104 | glycan array binding signal (z-score) [7]: -0.334 | glycan array binding signal (z-score) [8]: -0.258 | glycan array binding signal (z-score) [9]: 0.095 | glycan array binding signal (z-score) [10]: 0.579 | glycan array binding signal (z-score) [11]: -0.039 | glycan array binding signal (z-score) [12]: -0.296 | glycan array binding signal (z-score) [13]: -0.134 | glycan array binding signal (z-score) [14]: -0.341 | glycan array binding signal (z-score) [15]: -0.183 | glycan array binding signal (z-score) [16]: -0.25 | glycan array binding signal (z-score) [17]: -0.129 | glycan array binding signal (z-score) (Gal(b1-3)GlcNAc6S): -0.18 | glycan array binding signal (z-score) [18]: -0.086 | glycan array binding signal (z-score) [19]: 0.034 | glycan array binding signal (z-score) [20]: -0.209 | glycan array binding signal (z-score) [21]: -0.152 | glycan array binding signal (z-score) [22]: 0.014 | glycan array binding signal (z-score) [23]: -0.02 | glycan array binding signal (z-score) [24]: -0.237 | glycan array binding signal (z-score) [25]: -0.173 | glycan array binding signal (z-score) [26]: -0.042 | glycan array binding signal (z-score) [27]: -0.363 | glycan array binding signal (z-score) (Gal(b1-4)Gal): -0.072 | glycan array binding signal (z-score) [28]: -0.283 | glycan array binding signal (z-score) [29]: -0.297 | glycan array binding signal (z-score) (Gal(b1-4)Glc): -0.272 | glycan array binding signal (z-score) (Gal(b1-4)Glc6S): -0.2 | glycan array binding signal (z-score) (Gal(b1-4)GlcNAc): -0.244 | glycan array binding signal (z-score) [30]: -0.159 | glycan array binding signal (z-score) (Gal(b1-4)GlcNAc(b1-2)Man): 0.004 | glycan array binding signal (z-score) [31]: -0.179
